From PubChem BioAssay AID2546 (National Center for Advancing Translational Sciences (NCATS), 2010)
About 11,000 (3.5%) of roughly 310,000 compounds were called active. Inconclusive results, whose numbers are uncertain, are shown with a selection of clear calls. Calls follow the shape of the dose curve; as a rule, active = well fitted inhibition curve with a large enough effect; inconclusive = small, poorly fitted or top-dose-only effect, or effect the other way; inactive = flat fitted curve, though single readings scatter. Potencies of inconclusive entries are left out as doubtful fits.
% is scaled to controls: 0 for no effect and ±100 for the full control effect; potency is read from the fitted curve at half-maximal effect; tags tell the direction and shape of the fitted curve.

Assay: VP16 counterscreen qHTS for inhibitors of ROR gamma transcriptional activity;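 also: Gal4-VP16 expression switched on by copper sulfate through the metallothionein promoter; nearly all actives have a fitted effect of over 50% in size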
Conditions: Drosophila S2 Gal4-VP16 UAS-luciferase, luminescence, 20 h; activity, negative = inhibition: at 53.6 µM (top of the series)
For `COc1ccc(N2CCN(C(=O)CSc3nnc(-c4cc5ccccc5cc4O)n3C)CC2)cc1`, the Potency was inconclusive [inhibitor, partial curve]. With `COc1ccc(/C=C/C(=O)N2CCCc3ccccc32)cc1` the Potency was inconclusive [inhibitor, single point]. In the case of `Cc1cccc(N2CCN(c3ccc(N4C(=O)CCCC4=O)cc3[N+](=O)[O-])CC2C)c1` (centres undefined), the Potency is reported as inconclusive [inhibitor, single point]. For `COc1ccc(C(=O)CC(=O)c2ccc(C)cc2)c(O)c1`, the Potency was inconclusive [inhibitor, single point]. For `O=C1CN(C(=O)c2c(F)cccc2F)C(c2ccccc2)c2cc(Br)ccc2N1` (centres undefined), the Potency was inconclusive [inhibitor, single point]. In the case of `N#CC1=C(N)SC(N)=C(C#N)C1c1ccc([N+](=O)[O-])cc1`, the Potency is reported as inconclusive [inhibitor, single point]. With `O=C(N/N=C/C=C\c1ccccc1[N+](=O)[O-])c1cccnc1` the Potency was inconclusive [inhibitor, single point]. For `COc1ccc(CNc2ccc(Cl)cc2)cc1Cn1ccnc1`, the Potency was inconclusive [inhibitor, single point]. In the case of `CCCC1=NN(c2ccc([N+](=O)[O-])cc2)C(=O)/C1=C/N(C)C`, the Potency is reported as inconclusive [inhibitor, single point]. For `Cc1ccc(C)c(CNS(=O)(=O)c2c(C)[nH]c(C)c2C(=O)N2CCCC2)c1`, the Potency was “inactive”. For `FC(F)(F)c1nnc(N2CCN(c3ccc(Cl)cc3)CC2)s1`, the Potency was inconclusive [inhibitor, single point]. For `CCCCCCCCCCCCCC[n+]1ccc(C)cc1`, the Potency was active: 3.98 µM. For `N[C@@H](Cc1c[nH]c2ccc(O)cc12)C(=O)O`, the Potency was inconclusive [inhibitor, partial curve]. For `Cc1[nH]c2ccccc2c1C(=O)COC(=O)c1c(-c2ccccc2)noc1C`, the Potency was inconclusive [inhibitor, single point]. In the case of `O=C(COC(=O)c1ccc(O)cc1O)c1ccc2c(c1)OCO2`, the Potency is reported as inconclusive [inhibitor, partial curve]. With `O=C(NC(=S)Nc1ccc(Br)cn1)c1cccs1` the Potency was active: 8.91 µM. For `O=C(NC(=O)c1ccccc1)Nc1ccccc1`, the Potency was inconclusive [inhibitor, partial curve]. In the case of `Cc1ccc(-c2csc(NC(=O)Cc3ccc(F)cc3)n2)o1`, the activity, negative = inhibition is reported as inactive: -6.08% [at 10 µM]. With `O=C(NCc1ccccc1)C1CCCN1S(=O)(=O)c1ccc(F)cc1` (centres undefined) the Potency was “inactive”. With `NNc1nc(NCc2ccccc2)nc(N2CCOCC2)n1` the Potency was inconclusive [inhibitor, single point]. In the case of `CCOc1ccc(C(=O)N/N=C/c2cc(Cl)ccc2[N+](=O)[O-])cc1`, the Potency is reported as active: 5.62 µM. With `O=[N+]([O-])O[C@H]1CO[C@H]2[C@@H]1OC[C@H]2O` the Potency was “inactive”. With `Cc1nn(-c2ccccc2)c(C)c1NS(=O)(=O)c1ccccc1` the Potency was inconclusive [inhibitor, partial curve]. With `CCOc1ccc(Cc2n[nH]c(=S)n2N)cc1` the Potency was “inactive”. In the case of `CNC(=S)N/N=C(\C)c1ccc2c(c1)OCO2`, the Potency is reported as inconclusive [inhibitor, single point]. For `CC(OC(=O)c1ccc(S(=O)(=O)NCc2ccco2)cc1)C(=O)Nc1ncc(Cl)cc1Cl` (centres undefined), the Potency was inconclusive [inhibitor, single point]. For `CCN(C(=O)CN1C(=O)S/C(=C\c2cccc(Cl)c2)C1=O)C1CCS(=O)(=O)C1` (centres undefined), the Potency was “inactive”. In the case of `CC(C)(C)NC(=S)NCC1CC1`, the Potency is reported as inconclusive [inhibitor, single point]. For `Cc1ccc(-n2c(-c3cccnc3)n[nH]c2=S)c(C)c1`, the Potency was inconclusive [inhibitor, partial curve, poor fit]. With `CC1CCN(C(=O)CCS(=O)(=O)c2cc3c(cc2Cl)NC(=O)CO3)CC1` the Potency was “inactive”. With `O=C(Nc1sc2c(c1C(=O)c1ccc(Cl)cc1)CCCC2)c1cccnc1` the Potency was “inactive”. In the case of `Cc1ccc(OCc2ccc(C(=O)Nc3ccc(C(N)=O)cc3)o2)c([N+](=O)[O-])c1`, the Potency is reported as “inactive”. For `Cc1cc2c(cc1C)-c1c(ssc1=Nc1ccc(S(N)(=O)=O)cc1)C(C)(C)N2`, the Potency was “inactive”. With `CCOC(=O)/C(=C/c1ccc(OC(=O)c2ccccc2)cc1)C(C)=O` the Potency was inconclusive [inhibitor, single point]. In the case of `CCn1nc(C)c(CNC(=O)c2cc(COc3ccc(F)cc3Cl)on2)c1C`, the Potency is reported as inconclusive [inhibitor, single point]. For `Cc1nc(N(C)Cc2ccccc2)c2c(C)c(C)sc2n1`, the Potency was inconclusive [inhibitor, single point]. In the case of `COc1ccc(-c2nn(CC(=O)NCCc3ccccc3)c(=S)n2C)cc1`, the Potency is reported as “inactive”. In the case of `O=C(O)c1cccc(N2C(=O)c3cc([N+](=O)[O-])cc4cc([N+](=O)[O-])cc(c34)C2=O)c1`, the Potency is reported as inconclusive [inhibitor, single point]. In the case of `Cc1ccc(C(C)C)c(Oc2cnccn2)c1`, the Potency is reported as “inactive”. With `CC(=O)Nc1cccc(C(=O)/C=C/c2ccc(F)cc2)c1` the Potency was inconclusive [inhibitor, single point]. In the case of `COc1ccc(N(C)S(=O)(=O)c2ccc3c(c2)CC(C)N3C(=O)C2CC2)c(OC)c1` (centres undefined), the Potency is reported as inconclusive [inhibitor, single point]. For `CC(Sc1nc2ccccc2[nH]1)C(=O)NC1CCCCC1C` (centres undefined), the Potency was “inactive”. With `CCc1ccccc1NS(=O)(=O)c1cc(C)ccc1OC` the Potency was inconclusive [inhibitor, single point]. In the case of `CCOc1ccc(C(=O)NCc2ccccc2OC)cc1`, the Potency is reported as inconclusive [activator, single point]. With `COCC1CCCCN1C(=O)c1cc(COc2ccc3ncccc3c2)on1` (centres undefined) the Potency was active: 7.08 µM. In the case of `CCc1ccc(/C=N/NC(=O)c2cc(C3CC3)nc3ccc(Br)cc23)s1`, the Potency is reported as active: 1.58 µM. With `COc1ccccc1-n1cc(-c2ccccc2)c2c(=S)nc[nH]c21` the Potency was active: 1 µM. With `Cc1cc(C(=O)CSc2nc(N)cc(=O)[nH]2)c(C)n1Cc1ccco1` the Potency was inconclusive [inhibitor, single point]. In the case of `O=C(NC(=S)N1CCCCCC1)c1ccc(Cl)cc1Cl`, the Potency is reported as active: 1 µM. For `O=C(NC1CCSc2ccccc21)c1cccc(Br)c1` (centres undefined), the Potency was “inactive”. For `O=c1c2c(-c3ccc(Cl)cc3)csc2ncn1/N=C/c1cccc([N+](=O)[O-])c1O`, the Potency was inconclusive [inhibitor, single point]. For `CCOC(=O)Cc1csc(NC(=O)c2c(O)c3ccccc3n(CC(C)C)c2=O)n1`, the Potency was “inactive”. With `CCOC(=O)c1c(-c2ccccc2)csc1NC(=S)N(CC)CC` the Potency was inconclusive [inhibitor, single point]. For `COc1cccc(-c2cc(=O)c3cc(NC(=O)c4ccc(N(C)C)cc4)ccc3[nH]2)c1`, the Potency was inconclusive [inhibitor, single point]. For `S=c1[nH]nc(Cc2sc(-c3ccccc3)nc2-c2ccccc2)o1`, the Potency was inconclusive [inhibitor, single point]. In the case of `COc1cc(C(CCN2CCCC2)c2c(OC)cc(OC)c3c2OC(=O)CC3c2ccc(N(C)C)cc2)cc(OC)c1OC` (centres undefined), the Potency is reported as “inactive”. For `Nc1ccc(C(=O)Nc2nc3ccccc3s2)cc1`, the Potency was inconclusive [inhibitor, single point]. With `CCOc1ccc(CN(C)CC(=O)Nc2ccc3c(c2)CCC3)cc1OC` the Potency was inconclusive [inhibitor, single point]. In the case of `CCc1ccc(OCC(=O)NC(NC(=S)Nc2ccc(C)cc2C)C(Cl)(Cl)Cl)cc1` (centres undefined), the Potency is reported as inconclusive [inhibitor, single point]. In the case of `O=C1C(C=Nc2ccccc2)=C(O)c2ccccc21`, the Potency is reported as active: 11.2 µM. With `O=C(Nc1ccccc1Cl)c1cnccn1` the Potency was inconclusive [activator, single point]. For `CCOC(=O)C1(Cc2cccc(Cl)c2)CCCN(C(=O)c2cc(CC)on2)C1` (centres undefined), the Potency was inconclusive [activator, partial curve]. For `CCOC(=O)c1ccc(-c2ccc(/C=N/NC(=O)c3cncc(Br)c3)o2)cc1`, the Potency was inconclusive [inhibitor, single point]. In the case of `Cc1nc2ncnn2c(N2CCCC(C(=O)Nc3ccccc3Br)C2)c1C` (centres undefined), the activity, negative = inhibition is reported as inactive: -19.5% [at 10 µM]. In the case of `CCC(=O)N1c2ccc(S(=O)(=O)NCc3ccccc3)cc2CC1C` (centres undefined), the Potency is reported as inconclusive [inhibitor, single point]. For `O=C(NC(=S)Nc1cccc(Cl)c1N1CCOCC1)c1cccs1`, the Potency was active: 17.8 µM. For `COc1ccc(NC(=O)c2nc(C)c(C3(C)CC(c4ccccc4)=NO3)s2)cc1` (centres undefined), the Potency was “inactive”. With `C[C@H](NC(=O)c1nc[nH]c1C(=O)NC1CCN(C(=O)OC(C)(C)C)CC1)C(=O)OC(C)(C)C` the Potency was active: 11.2 µM. For `O=C(CN(Cc1ccccc1Cl)C(=O)CCC(=O)Nc1nccs1)NCC1CCCO1` (centres undefined), the Potency was “inactive”. In the case of `O=C(Nc1ccc(N2CCN(c3ncccc3C(F)(F)F)CC2)nc1)c1cccs1`, the Potency is reported as “inactive”. With `O=C(CN1CCN(c2ccccc2Cl)CC1)NC1CCCc2ccccc21` (centres undefined) the Potency was “inactive”. With `N#Cc1ccc(/C=C/C(=O)c2ccc3c(c2)OCO3)cc1` the Potency was “inactive”. For `CN(C)C1(CNC(=O)C2CCN(S(=O)(=O)c3ccccc3C(F)(F)F)CC2)CCCCC1`, the Potency was “inactive”. In the case of `O=C(N/N=C/c1ccco1)c1cccc([N+](=O)[O-])c1`, the Potency is reported as “inactive”.
